± gives the standard deviation of the averaged measurements. The list shows a part of the results.
tested on: PfAP2-G AP2 domain (GST-tagged); test: gcPBM binding intensity (ln(normalized median fluorescence intensity)); higher = stronger DNA binding
In short: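 Binding intensity is the highest Masliner-normalised natural-log median intensity over replicate spots in either probe orientation. To obtain it, GST-tagged P. falciparum DNA-binding domains made in E. coli were incubated for 1 h on an Agilent 4 × 180k array of primer-extended double-stranded 36-bp intergenic genomic probes plus negative controls. Detection used Alexa488 anti-GST antibody with scanning at 488 nm.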

| Sequence | gcPBM binding intensity (ln) |
| --- | --- |
| TTTATATTTAAAGAAACATGCATTTATCATATATAC [TGCATGCA_site173] | 9.73 ± 0.071 |
| CAATTTATAAAGAAAACACACATATACCTATATACA [CACACA_site6710] | 10.13 ± 0.014 |
| ATTTAAAAAAAAAGACGTACATTTATATAGAATCCT [XGTACX_site6457] | 11.5 ± 1 |
| ATTTTTTTATTTTGAAGTACATAAACTTTATATATA [XGTACX_site1746] | 11.4 ± 0.91 |
| ATTACATATGTCGCTTGTACGCATAATTTTTTTATA [XGTACX_site5782] | 11.6 ± 1 |
| ATTACCAAAAAAAGGTGTACAAATATAATTATGAAA [XGTACX_site44] | 11.5 ± 0.8 |
| AAAAAATATACATATTGTACATTTTTTATTAACACA [XGTACX_site6415] | 10.8 ± 0.49 |
| ATAAATTTACATTTTTTTTTTTTTTTTTTTTTTTTT [GTGCAC_negctrl_site689] | 10.9 ± 0.66 |
| GTATAGTACAAATAAGTGCATATAAAAGAAATACAG | 10.9 ± 0.49 |
| TAATTTTTATTCAGTTCACACACGCTTTAATATTAT [CACACA_site9147] | 10.2 ± 0.12 |
| TAGTAATATGTATCCATACACACATACATTTTATTT [CACACA_site873] | 10.13 ± 0.092 |
| TTTTCCTTTCACAATGGTACACAAATATACATGCAA [XGTACX_site7244] | 11.2 ± 0.8 |
| ATTTTTTTTCGTAATTGTTCTTAATGTTGAATTATA [CACACA_negctrl_site1135] | 9.9 |
| ATTTAAAATAGAAGTTATATTTATATGGGTGAAAAA [GTGCAC_negctrl_site296] | 9.94 ± 0.071 |
| GGAATAACCGGACACACACACACATATATATATATA [CACACA_site5874] | 10.5 ± 0.15 |
| GTACACCTATAATATACACACAACAAATATGCACAT [CACACA_site6603] | 11.1 ± 0.44 |
| ATTATATATATATATACACACACATATATATATATA [CACACA_site8373] | 10.1 ± 0.46 |
| ATCTTATATATATGTGTGCACGTATATATAAGCAAT [GTGCAC_site9933] | 10.4 ± 0.25 |
| TTATTCATACAATATCGTACATATATATATATATAT [XGTACX_site1185] | 11 ± 0.69 |
| TCTAATCTGGAGAAAAGTACATAGTATCTGGTAACA [XGTACX_site2540] | 11.2 ± 0.8 |
| AAAAAAATACAAATATGTACACATATATATTTAAAA [XGTACX_site4729] | 11.5 ± 1.1 |
| AAATAAAATATGAACAGTACTTTTGATATAACCATT [XGTACX_site1873] | 11 ± 0.67 |
| TTATAAATAAAAAGAGTGCAATTATAAATATATATA | 10.1 ± 0.23 |

| Sequence | gcPBM binding intensity (ln) |
| --- | --- |
| GTATGTATGTATGTATGTACTTATTTATTTATTTAT [XGTACX_site1921] | 11.3 ± 0.84 |
| ACCTTTAATATATACACACACATAAAAAAAATATAT [CACACA_site1843] | 10.3 ± 0.3 |
| AAATATTCATAGTATACACACATTTATTTATAACCA [CACACA_site6502] | 10.03 ± 0.071 |
| TAAATTTAAAATGACACACACTAAAATTATTTAAGT [CACACA_site4816] | 10.05 ± 0.021 |
| CTGTTTTTACTAAGTTGTACAAATGATGATACCCTA [XGTACX_site630] | 11.3 ± 0.63 |
| ATACAATAATATAAATGTACAAATTATATCTTAATT [XGTACX_site6004] | 10.7 ± 0.16 |
| CTATATTTTTAAAAATGTACTTTATAATAAAATACT [XGTACX_site3593] | 11.1 ± 0.74 |
| TAAAAGTATTCCTTTTGTACATATAATGAAAACAAT [XGTACX_site2069] | 10.9 ± 0.51 |
| TTCAATTTTACATGTAGTACATAAATTATACACAAA [XGTACX_site4946] | 11.6 ± 0.86 |
| TTATTCCTATTTGGATGTACATTTTAATATAAACAT [XGTACX_site4386] | 11.1 ± 0.63 |
| TTTTTTAATTTTACATGTACATACAGGTTTTTTTTT [XGTACX_site4539] | 11.2 ± 0.65 |
| AAAAAAGAAAAGAAATGTACAGAGCTTATCTTTTTA [XGTACX_site5677] | 10.6 ± 0.45 |
| AAAAAATTGTTTCCCTGTACTCAAAAAAAAAAAAAA [XGTACX_site8070] | 11.4 ± 1.1 |
| AATGATAAAAATAAATGTACAGAATGATATTTTTTT [XGTACX_site5976] | 10.8 ± 0.4 |
| ATTAATAAATAAATGACACACACACCCACAAAAAAA [CACACA_site8839] | 10.5 ± 0.46 |
| GTTTTTTTTTTTTTGGTGCGTCATTTTCAAAAGAAG [GTGCAC_site9745] | 10.4 ± 0.2 |
| TAAAATTTACGGTCTTGTTGCGCAACCAACATTGTC [CACACA_negctrl_site1175] | 10.7 ± 0.42 |
| TAATAATAGTAAATATGTACATATATATATATATAG [XGTACX_site4602] | 11.2 ± 0.59 |
| TTAGTAGTATTATGTAGTACATAATTATCATATCAT [XGTACX_site817] | 11.6 ± 1.1 |
| ACTTAATTTTTTTTATGTACTTATTTAAAAAATTTT [XGTACX_site2712] | 11.4 ± 0.8 |
| CTTAAAGGGAAAAATACACACATATAAATATTATGT [CACACA_site2225] | 9.875 ± 0.035 |
| TTTTTTGAATTTAAAAGTACAGGCTTTTACCAAATA [XGTACX_site1356] | 11.3 ± 0.91 |

Reference: the supplement of paper PMC11417369
